Measurements taken from PubChem BioAssay AID652104 (National Center for Advancing Translational Sciences (NCATS), 2013).
The campaign covered roughly 410,000 compounds. About 7,200 (1.8%) were called active. Inconclusive results, whose numbers are uncertain, are shown with a selection of clear calls. The call rests on the fitted dose curve; in most records, active means well fitted activation curve with a large enough effect; inconclusive means small, poorly fitted or top-dose-only effect, or another doubt; inactive means no such curve, though single readings can be large or run the other way. Potencies of inconclusive entries are doubtful fits and often do not repeat.

Assay: qHTS of TDP-43 Inhibitors; further: nearly all actives have a fitted effect of over 50% in size; on growth rescue (activation): % of control where 0% means no effect
Conditions: TDP-43 expressing yeast growth rescue, BacTiter-Glo, 24 h; growth rescue (activation): at 46.1 µM (top of the series) unless noted
In short: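 Cell-based yeast growth screen: TDP-43 expression induced in galactose, inoculum OD600=0.02 after raffinose pregrowth to mid-log. Read-out BacTiter-Glo luminescence at 24 hr, 30 deg C; inhibition of toxicity seen as signal increase.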
Potency means the concentration at half of the fitted maximal effect; tags describe the fitted curve by direction and shape.

Potency, inconclusive:
COc1ccc(CCNC(=O)CSCc2ccc([N+](=O)[O-])cc2)cc1 31.6 µM [activator, single point]
COc1cc(/C=N/n2c(COc3ccccc3)n[nH]c2=S)cc(OC)c1OC(C)=O 5.01 µM [activator, partial curve]
Cc1ccc(C(=O)NC(=S)c2c(C)cc3ccccn23)cc1 1 µM [activator, full curve, poor fit]
COc1ccccc1N1CCN(CCCN2C(=O)C3CCCCN3C2=O)CC1 (stereo not given) 5.62 µM [activator, partial curve]
Cc1c(C(=O)N2CCOCC2)[nH]c2ccc(OCc3ccccc3)cc12 15.8 µM [activator, single point]
Cc1ccccc1CC(=O)c1ccc(O)c(C)c1O 1.41 µM [activator, partial curve]
CC(OC(=O)c1nc(Cl)ccc1Cl)C(=O)Nc1ccc2c(c1)OCCO2 (stereo not given) 10 µM [activator, partial curve]
CCCC(=O)N1CCN(c2nc3ccc(Br)cc3s2)CC1 17.8 µM [activator, partial curve]
COC(=O)c1ccc2c(c1)N(Cc1ccc(Cl)cc1)C(=O)c1ccccc1S2 8.91 µM [activator, partial curve, poor fit]
O=C(CSC(=S)N1CCCC1)N1CCN(S(=O)(=O)c2ccccc2F)CC1 14.1 µM [activator, partial curve]
COc1ccc(-c2n[nH]c(=S)n2/N=C/C=C/c2ccccc2OC)cc1 6.31 µM [activator, full curve]
C/C(=N\Nc1ccc(S(=O)(=O)N2CCCCC2)cn1)c1cccc(Br)c1 14.1 µM [activator, single point]
CC(C)OCCCNC(=O)CN1C(=O)COc2ccc(S(=O)(=O)N3CCCCCC3)cc21 0.794 µM [activator, partial curve]
COc1ccccc1-c1cc2c(c3c1ccn3C)C1CCC2O1 (stereo not given) 12.6 µM [activator, single point]
CC(=O)Nc1cc(C(=O)N2CCc3ccccc3C2)ccc1Sc1ccc(Cl)cc1 10 µM [activator, partial curve]
COc1ccc(OC)c(NC(=O)c2cc(-c3cc(F)ccc3OCC3CCCO3)n[nH]2)c1 (stereo not given) 14.1 µM [activator, partial curve]
COC(=O)NNC(=O)COc1ccc2ccccc2c1Br 20 µM [activator, single point]
COc1ccc(NC(=S)NCCc2ccc(Cl)cc2)c(OC)c1 22.4 µM [activator, single point]
Cc1ccc(-c2nc(NCc3ccco3)n(S(C)(=O)=O)n2)cc1 10 µM [activator, partial curve]
Cc1cc(C(=O)NCc2ccccc2Cl)n(-c2ccccc2)n1 31.6 µM [activator, single point]
CC(=O)c1c(C(C)=O)c(C)n(-c2nc(-c3ccc(Br)cc3)c(C)s2)c1C 2.82 µM [activator, full curve, poor fit]
CCC(C(=O)Nc1cc(F)ccc1F)n1nc(C)c2c(C)n(-c3ccc(C)cc3)nc2c1=O (stereo not given) 35.5 µM [activator, partial curve, poor fit]
Cc1ccc(-n2nc3c(c2NC(=O)c2ccc4c(c2)OCO4)CS(=O)C3)c(C)c1 (stereo not given) 2.24 µM [activator, partial curve]
Cc1ccc(S(=O)(=O)c2c(N)n(NC(=O)c3ccco3)c3nc4ccccc4nc23)cc1 1 µM [activator, full curve, poor fit]
COc1ccccc1NC(=O)Cn1cc(C(=O)c2ccco2)c2ccccc21 25.1 µM [activator, single point]
O=c1c2ccccc2nc(/C=C/c2cccnc2)n1CCc1ccccc1 15.8 µM [activator, single point]
COc1ccc(CCNC(=O)C(C)n2c(=O)cc(-c3ccccc3)c3c(C)nn(C)c32)cc1OC (stereo not given) 12.6 µM [activator, partial curve]

Potency, active:
Cc1ccc(NC(=S)N2CCC(c3ccc(C)cc3)C2)cc1 (stereo not given) 17.8 µM
O=C(Nc1ccccc1Cl)c1cc(C2CCCN(C(=O)C3CCCCC3)C2)on1 (stereo not given) 15.8 µM
Nc1nc(-c2cc(Cl)cc(Cl)c2OC(F)F)cs1 15.8 µM
COc1ccccc1Cc1c(-c2ccccc2)nc2ccc(Br)cn12 35.5 µM
O=C(c1cc(COc2cccc(C(F)(F)F)c2)on1)N1CCSCC1 22.4 µM
COc1ccc(-c2csc(C(O)c3ccc(F)c(OC)c3)n2)cc1 (stereo not given) 22.4 µM

Growth rescue (activation), inconclusive:
CC12CCC(=O)N1C(C(=O)Nc1nc3ccc(Cl)cc3s1)CS2 (stereo not given) 34.3% [activator]

Growth rescue (activation), inactive:
O=C(COc1ccccc1)N1CCN(c2ncccn2)CC1 5.56%
CCOC(=O)c1cccc(NC(=O)/C=C/c2ccc3c(c2)OCO3)c1 23.1%
CCOC(=O)c1c(C)[nH]c(C)c1S(=O)(=O)N1CCCC(C(=O)NCc2cccc(OC)c2)C1 (stereo not given) 27.9%
Cc1cc2cc(CNC(=O)c3ccc(S(=O)(=O)N4CCCC4)cc3)ccc2n1C 4.3%
COCCCNC(=O)CCc1c(C)nc2nc(-c3cc(OC)cc(OC)c3)nn2c1C 10.7%
O=C(O)Cc1cccc(=O)c(O)c1C(=O)O 10.7%
Cc1ccc(CNC(=O)C2CCN(S(=O)(=O)c3cn(C)cn3)CC2)cc1 8.78%
CCN(C(=O)c1cn(CC)c(=O)c2cc(OC)c(OC)cc12)c1ccccc1F 3.21%
COCCCn1c(-c2ccc(Cl)cc2)n[nH]c1=S 13%
Cc1nn(-c2ccccc2)c(C)c1/C=N/n1cnnc1 15.3%
CC1CCN(c2nc3ccc(C(=O)N4CCN(c5ccccc5)CC4)cc3s2)CC1 0%
